From PubChem BioAssay AID1347073 (National Center for Advancing Translational Sciences (NCATS), 2019)
The campaign covered roughly 45,000 compounds. About 200 (0.44%) were called active. Roughly 7% stayed inconclusive and do not appear here. Calls follow the shape of the dose curve; as a rule, active = well fitted activation curve with a large enough effect; inconclusive = small, poorly fitted or top-dose-only effect; inactive = no such curve, though single readings can be large or run the other way. Some of the results follow.

Assay: qHTS of TDP-43 Inhibitors: NCGC Sytravon Library Screen; also: 0% is about no effect; nearly all actives have a fitted effect of over 55% in size
Details: yeast TDP-43 toxicity rescue, BacTiter-Glo growth, 24 h; series mostly up to 46.1 µM; growth rescue (activation): at the top concentration
Summary of the method: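 TDP-43-expressing yeast, pregrown in raffinose, seeded at OD600 0.02 in galactose medium with compound for 24 hr at 30 deg C. Growth read by BacTiter-Glo luminescence, so rescue of toxicity appears as activation.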

| Compound | growth rescue (activation) |
| --- | --- |
| CCOC(=O)C1CCCN(CCC(=O)Nc2cccc(C)c2)C1 (stereo not given) | inactive: 6.07% |
| O=C1c2ccccc2CN2C(=O)c3ccccc3CN12 | inactive: 14.3% |
| CC(OC(=O)c1ccccc1NS(=O)(=O)c1cccc(C(F)(F)F)c1)C(=O)N(C)Cc1ccccc1 (stereo not given) | inactive: 1.68% |
| COc1ccc2nc(C)cc(SCC(=O)N/N=C/c3ccccc3)c2c1 | inactive: 11.1% |
| CC(C)CNC(=O)CSc1ccc(S(=O)(=O)N(C)C2CCCCC2)cn1 | inactive: 24.8% |
| Cc1cccc(C(=O)NNC(=O)CSc2nnc(C(C)C)n2C)c1 | inactive: 3.81% |
| O=C(COC(=O)c1cccnc1Cl)Nc1ccccc1OC(F)F | inactive: 30.9% |
| C/C(=N\Nc1cccc([N+](=O)[O-])c1)c1cc2ccccc2o1 | inactive: -4.81% |
| O=C1Nc2ccc([N+](=O)[O-])cc2OC1CCN1CCOCC1 (stereo not given) | inactive: 12.5% |
| CCOC(=O)c1sc(NC(=O)Nc2ccccc2)cc1C | inactive: 3.9% |
| CC(=O)Nc1ccc(SCC(=O)c2ccc(Br)s2)cc1 | inactive: 18.1% |
| COC(CC(=O)NNC(=S)Nc1ccc(Cl)cc1)OC | inactive: -7.02% |
| O=C(O)CN1CCc2ccccc2C1 | inactive: -17.6% |
| COCCNC(=O)C1CCCN(Cc2ccc(C(C)C)cc2)CC1 (stereo not given) | inactive: 3.73% |
| COc1ccc(-c2cc3ncc(-c4ccccc4)c(N)n3n2)cc1 | inactive: 29.8% |
| CCOc1ccc(-n2c(-c3ccccc3)c[nH]c2=S)cc1 | inactive: 24.1% |
| OC1CCN(Cc2nc(Cc3ccccc3Cl)no2)CC1 | inactive: -4.63% |
| COc1ccccc1CNC(=O)CN(CCc1ccccc1)S(C)(=O)=O | inactive: -6.1% |
| O=C(c1ccc(Br)o1)N1CCN(CCOc2ccccc2)CC1 | inactive: 12.7% |
| N#C/C(=C\c1ccc(Sc2ccccc2)o1)c1nc2ccccc2[nH]1 | inactive: 23.9% |
| O=C(O)c1ccccc1C(=O)Nc1ccc(S(=O)(=O)N2CCCC2)cc1 | inactive: -13.6% |
| COC(=O)c1ccc(CN2CCC(CO)(Cc3ccccc3Cl)CC2)cc1 | inactive: 0.421% |

| Compound | growth rescue (activation) |
| --- | --- |
| O=C(COC(=O)c1cc[n+]([O-])cc1)Nc1ccc([N+](=O)[O-])cc1Cl | inactive: 10.5% |
| Cc1ccccc1C(=O)OCCN(C)Cc1ccccc1 | inactive: -4.43% |
| CCN(CC)c1ccc(/C=C/C(=O)c2ccc(Br)cc2)cc1 | inactive: 36.2% |
| Cc1ccc(S(=O)(=O)N(C)C)cc1NC(=O)COC(=O)c1ccc2c(c1)NC(=O)CS2 | inactive: 7.31% |
| N/C(=N\N=C\c1ccco1)SC1CC(=O)N(c2ccc(C(=O)O)cc2)C1=O (stereo not given) | inactive: 9.66% |
| COC(=O)/C=C/COc1ccccc1[N+](=O)[O-] | inactive: 8.67% |
| CC(C)Cn1c(-c2cc([N+](=O)[O-])ccc2Cl)nc2c1c(=O)[nH]c(=O)n2Cc1ccccc1 | inactive: 8.79% |
| CCNC(=O)N(C)c1c(CC)nc2ccc(C(=O)Nc3cccc(OCC(=O)N(C)C)c3)cn12 | inactive: 0.513% |
| S=c1[nH]nc(-c2ccccn2)n1/N=C/c1cccc(Cl)c1 | inactive: 6.73% |
| O=C(NC(=S)NCc1cccnc1)c1cc2ccccc2o1 | inactive: 4.97% |
| CCn1c(=O)c([N+](=O)[O-])c(N2CCOCC2)c2ccccc21 | inactive: -21.9% |
| CCC(=O)Nc1ccc(NC(=S)NC(=O)c2cc3ccccc3o2)cc1 | inactive: 4.01% |
| Cn1c(=O)c2c(nc(N3CCOCC3)n2CCc2ccccc2)n(C)c1=O | inactive: -4.33% |
| CN(C)CCCN(Cc1ccccc1)C(=S)NCc1ccccc1 | inactive: -6.85% |
| CCN(CC)c1ccc(/C=N/NC(=O)c2ccc3nc[nH]c3c2)c(O)c1 | inactive: 27.5% |
| COc1ccc(-c2noc(C3CCCN(C(=O)c4cccc(F)c4)C3)n2)cc1 (stereo not given) | inactive: 25.5% |
| Cc1cc(C(F)(F)F)nc(CCNC(=O)C2CCC(=O)N(Cc3cccc(F)c3)C2)n1 (stereo not given) | inactive: 9.55% |
| COc1cc(C(=O)COC(=O)C2CC2(Cl)Cl)cc(OC)c1OC (stereo not given) | inactive: 4.94% |
| O=C(Nc1cccc(S(=O)(=O)N2CCCC2)c1)[C@@H]1O[C@H](CO)[C@@H](O)[C@H]1O | inactive: 12.2% |
| CC1CCCC(C)N1C(=O)COc1ccccc1F (stereo not given) | inactive: 1.83% |
| O=C(COC(=O)C1C2CC3OC(=O)C1C3C2)Nc1ccc(Br)cc1 (stereo not given) | inactive: 4.33% |
| O=C(NCCC(c1ccccc1)c1ccccc1)c1cnccn1 | inactive: 9.95% |

| Compound | growth rescue (activation) |
| --- | --- |
| COc1ccc(Oc2nc(-c3ccccn3)ncc2OC)cc1 | inactive: -14.4% |
| O=C(Cn1cc(C(F)(F)F)ccc1=O)N/N=C/c1ccc(Cl)c(Cl)c1 | inactive: 13.9% |
| Nc1ccccc1SCc1ccccc1 | inactive: 12.2% |
| Cc1ccccc1OCC(=O)OCC(=O)N1CCc2ccccc21 | inactive: 3.27% |
| NS(=O)(=O)c1ccc(N2C(=O)C3C4CC(C(Br)C4Br)C3C2=O)cc1 (stereo not given) | inactive: 5.23% |
| Cc1nn(CC(=O)Nc2ccc(S(=O)(=O)N(C)C)cc2)c(C)c1[N+](=O)[O-] | inactive: 6.03% |
| COc1ccc(OCC(=O)NNC(=O)c2c(-c3ccccc3Cl)noc2C)cc1 | inactive: -9.76% |
| COc1cccc(CN2CCNC(=O)C2CC(=O)NCc2cn3cccc(C)c3n2)c1OC (stereo not given) | inactive: -2.06% |
| CCN(CC)S(=O)(=O)c1ccc2oc(C(=O)NC3CC3)c(C)c2c1 | inactive: 9.78% |
| FC(F)(F)c1cccc(NC(=S)N2CCN(c3ccccc3)CC2)c1 | inactive: 10.4% |
| N#CCCn1c(C2CCCCC2)nc2ccccc21 | inactive: 14.7% |
| NS(=O)(=O)c1ccc(CCN=Cc2ccccc2O)cc1 | inactive: 13% |
| Cc1cccc(C)c1NC(=O)CNC(=O)Cc1ccccc1[N+](=O)[O-] | inactive: 0.317% |
| O=C(NCc1ccccn1)/C(=C/c1ccco1)NC(=O)c1ccccc1 | inactive: 9.18% |
| CCn1c(SCC(=O)NC2=NCCS2)nnc1C(C)NC(=O)c1ccccc1F (stereo not given) | inactive: -23.9% |
| CC(Nc1nc2ccccc2n2cnnc12)c1ccccc1 (stereo not given) | inactive: 23.9% |
| CCCc1cc(C(=O)Nc2cccc(Cl)c2C)no1 | inactive: 21.7% |
| O=[N+]([O-])c1ccc(C(=S)N2CCC(Cc3ccccc3)CC2)cc1 | inactive: 22.3% |
| O=[N+]([O-])c1ccc(O)c(/C=N/Nc2nc3ccccc3[nH]2)c1 | inactive: 6.45% |
| COc1ccc(C2CC(c3ccccc3)=NN2C(=O)CCC(=O)O)cc1 (stereo not given) | inactive: -16.7% |
| c1ccc(-c2nccc(-c3ccc4c(c3)OCO4)n2)cc1 | inactive: 12.1% |
| CN(C)c1ccc(N=Nc2ccc(C(=O)O)cc2)cc1 | inactive: 13.6% |

| Compound | growth rescue (activation) |
| --- | --- |
| Cc1noc(C)c1S(=O)(=O)Nc1ccc(C(=O)NC2CCCCCC2)cc1 | inactive: 22.4% |
| COc1ccc(CC(=O)N2CCC(n3nccc3NC(=O)C3CC3)CC2)cc1 | inactive: 15.1% |
| COc1ccc(Br)cc1CN(C)CC(O)COc1ccc(Br)cc1 (stereo not given) | inactive: -5.16% |
| COc1ccccc1NC(=O)c1c(N=Cc2c(O)ccc3ccccc23)cnn1C | inactive: -25% |
| COc1cc(NC(=S)N2CCN(CCO)CC2)c(OC)cc1Cl | inactive: -0.666% |
| CCOC(=O)c1ccc(NC(c2ccc(N(C)C)cc2)P(=O)(OC(C)C)OC(C)C)cc1 (stereo not given) | inactive: -0.743% |
| COc1ccc(S(=O)(=O)NN(C)c2nc(C(F)(F)F)nc3ccccc23)cc1 | inactive: 9.67% |
| CC(=O)N(C)c1ccc(C(O)(C(F)(F)F)C(F)(F)F)cc1 | inactive: -7.9% |
| O=C1NC(=Nc2ccc(F)cc2)SC1Cc1ccc(F)cc1 (stereo not given) | inactive: 1.02% |
| CC1(C(=O)NCc2cccs2)Cc2c(-c3ccc(C(N)=O)cc3)ccnc2O1 (stereo not given) | inactive: 8.92% |
| COc1ccc(OC)c(NC(=S)NCc2cccs2)c1 | inactive: 4.51% |
| O=C(CN1C(=O)COc2ccccc21)NNC(=O)Nc1ccccc1F | inactive: -9.51% |
| C/C(CC(=O)NCc1ccco1)=N\NC(=O)C(c1ccccc1)c1ccccc1 | inactive: 0.374% |
| Cc1cccc(Oc2ccc(S(=O)(=O)N3CCCCC3)cc2N)c1 | inactive: 23.2% |
| Cc1ccc(-c2nn3c(C)nnc3s2)cc1NC(=O)c1cccnc1 | inactive: 16.8% |
| CCOc1ccc(CNc2ccc(N3CCOCC3)c(C(=O)O)c2)cc1 | inactive: 3.47% |
| COc1ccc2ncc(OC(C)=O)cc2c1 | inactive: 11.5% |
| CCN(CC)S(=O)(=O)c1ccc(N2CCOCC2)c(NC(=O)c2sccc2C)c1 | inactive: 23.2% |
| COc1ccccc1NS(=O)(=O)c1cc(NC(=O)c2cc3ccccc3oc2=O)ccc1C | inactive: 6.65% |
| COc1ccc(NC(=S)N2CCCC(c3nc4ccc(C)cc4[nH]3)C2)cc1 (stereo not given) | inactive: -0.905% |
| Cc1ccc(S(=O)(=O)NC(C)C(=O)NC(C)c2cccs2)cc1 (stereo not given) | inactive: -14% |
| O=C(CCNC(=O)c1ccc([N+](=O)[O-])cc1)Nc1ccc(F)cc1 | inactive: 0.597% |

| Compound | growth rescue (activation) |
| --- | --- |
| CCc1cc2ccc(C)cc2nc1SCC(=O)NC1CCCC1 | inactive: -22.6% |
| O=c1cc(CSc2nnc(COc3cccc4ccccc34)o2)c2ccccc2[nH]1 | inactive: 17.3% |
| CCC1(C(=O)c2ccccc2)C(c2cccc([N+](=O)[O-])c2)C1(C(=O)OC)C(=O)OC (stereo not given) | inactive: -33.5% |
| O=C(c1ccccc1F)N(Cc1ccc2c(c1)OCO2)Cc1cc2cc3c(cc2n2nnnc12)OCO3 | inactive: -9.82% |
| COc1ccc(-n2nnnc2SCC(=O)NC2CCCC2)cc1OC | inactive: 6.87% |
| Cn1c(SCC(=O)c2ccccc2)nnc1-c1ccccn1 | inactive: -7.31% |
| CC1(C(=O)Nc2ccc(F)c(Cl)c2)Cc2c(-c3cccc(C(F)(F)F)c3)ccnc2O1 (stereo not given) | inactive: -0.863% |
| O=C(COC(=O)Cc1ccc(S(=O)(=O)N2CCOCC2)s1)Nc1ccccc1 | inactive: -9.19% |
| COc1ccc(OC)c(NC(=O)C2(C)CCN2Cc2ccccc2OC(F)F)c1 (stereo not given) | inactive: 5.19% |
| COc1cccc(NC(=O)CN(C)C(C)C(=O)N2CCCCC2)c1 (stereo not given) | inactive: -15.6% |
| CN1CCN(c2nc3c(c(=O)[nH]c(=O)n3C)n2Cc2cccc3ccccc23)CC1 | inactive: 26.3% |
| Cc1ccc(NC(=O)Nc2cnc3ccccc3c2)cc1 | inactive: 8.39% |
| CSc1ccccc1C(=O)Nc1cccc([N+](=O)[O-])c1C | inactive: 7.49% |
| Cc1ccc(N(C)S(=O)(=O)c2cccc(C(=O)Nc3nnc(C4CC4)s3)c2)cc1 | inactive: -4.43% |
| CC(C)c1ccc(NC(=O)COC(=O)/C=C/c2cccc([N+](=O)[O-])c2)cc1 | inactive: 10.6% |
| CCn1c(SCC(N)=O)nc2sc3c(c2c1=O)CCN(C)C3 | inactive: -0.0416% |
| Cc1cc(C)cc(CC2CC(=O)N(c3nc(C)cc(C)n3)C2=O)c1 (stereo not given) | inactive: 18.1% |
| O=C(NNC(=O)C1[C@H]2CCCC[C@@H]12)c1ccc(=O)oc1 (stereo not given in full) | inactive: -12.4% |
| COc1ccccc1-c1cnc(C(O)c2ccc(F)c(C)c2)[nH]1 (stereo not given) | inactive: 7.33% |
| O=C(CSc1ccc2c(c1)OCCO2)Nc1cccnc1 | inactive: 5.77% |
| CCOc1ncccc1C(=O)Nc1ccccc1F | inactive: 25.4% |
| CCCC(O)(c1ccc(Br)cc1)C(CN1CCOCC1)c1ccc(Cl)cc1 (stereo not given) | inactive: 7.89% |
